Experimental data published in PubChem BioAssay AID485367 (National Center for Advancing Translational Sciences (NCATS), 2010).
Screen size: about 330,000 compounds; about 560 (0.17%) were called active. Inconclusive results, whose numbers are uncertain, are shown with a selection of clear calls. Calls follow the shape of the dose curve; as a rule, active = well fitted inhibition curve with a large enough effect; inconclusive = small, poorly fitted or top-dose-only effect, or effect the other way; inactive = flat fitted curve, though single readings scatter. Potencies of inconclusive entries are left out as doubtful fits.
Also: nearly all actives have a fitted effect of over 60% in size.
Potency is read from the fitted curve at half-maximal effect; tags tell the direction and shape of the fitted curve.

The molecules below were run against ATP-dependent 6-phosphofructokinase (Trypanosoma brucei brucei) (UniProt O15648) (assay: qHTS Assay to Find Inhibitors of T. brucei phosphofructokinase). Conditions: T. brucei PFK, ADP-Glo luminescence; series mostly up to 57.5 µM.
Chain of UniProt O15648 (O15648 whole entry, looked up): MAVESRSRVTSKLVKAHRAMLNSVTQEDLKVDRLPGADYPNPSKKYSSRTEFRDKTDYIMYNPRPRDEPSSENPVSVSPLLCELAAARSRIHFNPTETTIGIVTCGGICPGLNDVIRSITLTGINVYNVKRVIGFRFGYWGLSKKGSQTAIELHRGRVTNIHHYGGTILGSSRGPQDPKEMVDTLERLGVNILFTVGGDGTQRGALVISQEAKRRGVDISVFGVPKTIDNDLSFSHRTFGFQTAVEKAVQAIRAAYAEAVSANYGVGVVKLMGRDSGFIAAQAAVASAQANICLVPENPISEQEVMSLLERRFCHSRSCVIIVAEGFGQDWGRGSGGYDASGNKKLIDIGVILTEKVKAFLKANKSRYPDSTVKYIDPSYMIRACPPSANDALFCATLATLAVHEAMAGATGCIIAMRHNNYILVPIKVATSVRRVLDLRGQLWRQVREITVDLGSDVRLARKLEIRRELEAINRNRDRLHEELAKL
How it was run: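 Luminescent ADP detection (ADP-Glo, two-step: ATP depletion then ADP-to-ATP conversion for luciferase) reported PFK activity after 45 min room-temperature reaction of 1.25 nM enzyme with 0.5 mM F6P and 0.1 mM ATP at pH 8.0.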
`CN1CCN(C(=S)C(=O)Nc2ccc(Br)cc2)CC1` was tested, and the Potency was active: 12 µM. For `Cc1cc(C)nc(NC(=NCCc2c[nH]c3ccccc23)NC(=O)Nc2ccc(Cl)c(Cl)c2)n1`, the Potency was inconclusive [falling, single point]. In the case of `COc1ccc(OC)c(-n2c(-c3cc(-c4ccc(F)cc4)n[nH]3)n[nH]c2=S)c1`, the Potency is reported as inconclusive [falling, partial curve]. In the case of `CCNS(=O)(=O)c1ccc(NC(=O)c2ccc(Cn3cc([N+](=O)[O-])cn3)o2)cc1`, the Potency is reported as inconclusive [falling, single point]. `CCSC1=N/C(=C\c2ccc(C(=O)O)cc2)C(=O)S1` was tested, and the Potency was inconclusive [activator, single point]. With `CN(C)S(=O)(=O)N(CC(=O)Nc1ccccc1C(F)(F)F)c1ccccc1` the Potency was inconclusive [falling, single point]. In the case of `Nc1ccc2nc(-c3ccc(Cl)cc3)[nH]c2c1`, the Potency is reported as inconclusive [activator, single point]. In the case of `CC(C)CNS(=O)(=O)c1ccc(S(=O)(=O)N2CCC3(CC2)OCCO3)cc1`, the Potency is reported as inconclusive [falling, single point]. `COc1cc(NC(=S)N2CCN(c3ccccn3)CC2)c(OC)cc1Cl` was tested, and the Potency was inconclusive [falling, single point]. With `CCOc1ccc(C(=O)N/N=C/c2cc([N+](=O)[O-])cs2)cc1` the Potency was inconclusive [falling, partial curve]. `O=C(O)CN1C(=O)/C(=C\c2ccccc2OCc2ccc(Cl)cc2Cl)SC1=S` was tested, and the Potency was “inactive”. In the case of `Cc1ccc(-c2csc3ncn(CC#N)c(=O)c23)cc1C`, the Potency is reported as inconclusive [falling, single point]. In the case of `O=C(O)Cc1ccc(NC(=O)c2ccc(Cl)c(Cl)c2)cc1`, the Potency is reported as inconclusive [falling, single point]. `O=C(CC1CC2CCC1C2)N1CCN(S(=O)(=O)c2ccccc2[N+](=O)[O-])CC1` (stereo not drawn) was tested, and the Potency was “inactive”. For `COc1cccc(NC(=O)C2CCN(Cc3cnn(-c4ccccc4)c3-n3cccc3)CC2)c1`, the Potency was “inactive”. For `Cc1nnc(N(Cc2ccco2)C(=O)c2cccc(C#N)c2)s1`, the Potency was “inactive”. For `COc1ccc(N2CCN(C(=S)Nc3ccc(S(N)(=O)=O)cc3)CC2)cc1`, the Potency was inconclusive [falling, single point]. `C/C=C/C=C/C(=O)N1CC2(CC(c3cccc(NC(=O)/C=C/C)c3)=NO2)C[C@@H]1C(N)=O` (stereo partly drawn) was tested, and the Potency was “inactive”. For `COc1ccc(-c2cc(C(F)(F)F)nc(SCC(=O)NCc3ccco3)n2)cc1OC`, the Potency was “inactive”. With `O=C(Nc1cccc(S(=O)(=O)N2CCCCCC2)c1)C1CCN(C(=O)c2ccc(Cl)cc2)CC1` the Potency was inconclusive [falling, single point]. In the case of `Cc1cccc(C)c1Nc1nnc(SCc2nc3ccccc3c(=O)[nH]2)s1`, the Potency is reported as inconclusive [activator, partial curve]. For `CCCN(Cc1ccccc1)C(=S)Nc1ccc(SC(F)F)cc1`, the Potency was “inactive”. With `Cc1cc(C)c2c(=O)n(CC(=O)Nc3ccc(Cl)cc3)sc2n1` the Potency was active: 8.49 µM. In the case of `Cc1ccc(S(=O)(=O)N2CCN(Cc3ccccc3C(F)(F)F)CC2)cc1`, the Potency is reported as “inactive”. For `S=C(NC1CCCCC1)N1CCN(C/C=C/c2ccccc2)CC1`, the Potency was inconclusive [falling, single point]. For `COc1ccc2c(c1)Cc1sc(NC(=O)c3ccccc3)nc1-2`, the Potency was “inactive”. For `COc1ccc(-c2c(C)nn3c(N4CCN(Cc5ccccc5)CC4)cc(C)nc23)cc1OC`, the Potency was “inactive”. For `CNCCCC1Sc2ccccc2Oc2ccccc21` (stereo not drawn), the Potency was “inactive”. In the case of `Cc1ccc(/C=C/C(=O)N2CCc3ccccc32)o1`, the Potency is reported as inconclusive [falling, single point]. `COc1cccc(C(=O)Nc2ccc3c(c2)C(=O)NC3=O)c1` was tested, and the Potency was inconclusive [falling, single point]. In the case of `O=Nc1ccc(O)c2ncccc12`, the Potency is reported as “inactive”. In the case of `Oc1cccc(Nc2nc(O)c(/C=C3\C=Nc4ccccc43)s2)c1`, the Potency is reported as “inactive”. For `O=C(NCc1ccco1)c1cc2ccc(O)cc2oc1=O`, the Potency was inconclusive [falling, single point]. `O=[N+]([O-])c1ccccc1N/N=C\c1ccccc1Cl` was tested, and the Potency was “inactive”. `CCOc1ccc(N2CSC3=C(C#N)C(c4ccco4)CC(=O)N3C2)cc1` (stereo not drawn) was tested, and the Potency was inconclusive [falling, partial curve]. In the case of `CCC(=O)Nc1ccc(C(=O)COC(=O)c2nc3nccc(C)n3n2)cc1`, the Potency is reported as inconclusive [falling, full curve]. For `NC(=S)N/N=C/c1ccc(-c2ccc(Cl)c(Cl)c2)o1`, the Potency was “inactive”. `Cc1ccc(C(=O)NC2CC(C)(C)NC(C)(C)C2)cc1Cl` was tested, and the Potency was inconclusive [falling, single point]. In the case of `COCCN1C=C(C(=O)OC)C(c2cc(Br)c(OC)c(OC)c2)C(C(=O)OC)=C1`, the Potency is reported as inconclusive [falling, single point]. With `O=C1C(Cl)=C(N2CCCCC2)C(=O)N1c1ccccc1` the Potency was inconclusive [activator, partial curve]. With `Clc1ccc(CSc2nc3ccncc3[nH]2)cc1` the Potency was inconclusive [falling, single point]. `COc1ccc(C2c3c(oc4ccc(Cl)cc4c3=O)C(=O)N2CCN2CCOCC2)cc1` (stereo not drawn) was tested, and the Potency was inconclusive [activator, partial curve]. With `O=C1NCC(COCc2ccccc2)O1` (stereo not drawn) the Potency was inconclusive [activator, single point]. For `Cc1ccc(S(=O)(=O)N2CCN(C(=O)COC(=O)/C=C/c3ccc([N+](=O)[O-])cc3)CC2)c(C)c1`, the Potency was inconclusive [falling, single point]. `CC(=O)c1ccc(NC(=S)Nc2ccc(Br)c(Cl)c2)cc1` was tested, and the Potency was active: 12 µM. `COc1ccc(NC(=O)CCC(=O)OCc2ccc([N+](=O)[O-])cc2)cc1` was tested, and the Potency was inconclusive [falling, single point]. For `CS(=O)(=O)N1CC(C(=O)NC2CCCC2)Oc2ccc(Cl)cc21` (stereo not drawn), the Potency was active: 19 µM. In the case of `CC(=O)Nc1ccc(C(=O)OCc2ccc(Cl)c(Cl)c2)cc1`, the Potency is reported as inconclusive [falling, full curve]. With `C=CCNC(=O)/C(C#N)=C\c1cc(Cl)c(O)c(OCC)c1` the Potency was “inactive”. With `c1ccc(Cn2ncc3c(NCc4ccco4)ncnc32)cc1` the Potency was “inactive”. With `Cc1cc(C)c(S(=O)(=O)N2CCN(C(=O)CCn3nc(C)c(C)c3C)CC2)c(C)c1` the Potency was “inactive”. In the case of `CC1(c2ccc3ccccc3c2)NC(=O)N(CC(=O)Nc2ncccc2O)C1=O` (stereo not drawn), the Potency is reported as inconclusive [activator, single point]. In the case of `CC1CCCCC1NC(=O)COc1ccc(C#N)cc1` (stereo not drawn), the Potency is reported as inconclusive [falling, partial curve]. `C#CCOCCOCCOCCNc1nc(N2CCN(C(=O)CCCCCCCCCCNC(=O)[C@H]([C@@H](C)CC)n3cc(CCCCCN)nn3)CC2)nc(N2CCN(C(=O)CCCCCCCCCCNC(=O)[C@@H]([C@H](C)CC)n3cc(CCCCCN)nn3)CC2)n1` was tested, and the Potency was inconclusive [activator, single point]. With `COc1ccc(N2CCN(Cc3ccc(Br)s3)CC2)cc1` the Potency was inconclusive [falling, single point]. For `CCN1CCN(C(=O)N[C@@H](C(=O)N[C@@H]2C(=O)N3[C@@H]2SC(C)(C)[C@@H]3C(=O)O)c2ccccc2)C(=O)C1=O`, the Potency was “inactive”. With `O=C(Cc1cccs1)N/N=C/C=C/c1ccco1` the Potency was inconclusive [falling, single point]. For `NS(=O)(=O)c1ccc(NC(=O)C2COc3ccccc3O2)cc1` (stereo not drawn), the Potency was active: 21.3 µM. For `COc1ccc(NC(=O)CSc2sc3c(O)cc(=O)[nH]c3c2C#N)c(OC)c1`, the Potency was inconclusive [falling, single point]. For `NC(=O)c1c(NC(=O)c2ccccc2)sc2c1CCC2`, the Potency was “inactive”. With `CC(C)(C)Cc1nnc(NC(=O)c2ccc3c(c2)OCO3)s1` the Potency was inconclusive [falling, partial curve]. For `O=C(COc1ccc(F)cc1Cl)Nc1ccc(S(=O)(=O)Nc2nccs2)cc1`, the Potency was active: 1.2 µM. `CC(=O)Nc1cccc(NC(=O)CSc2nc3c(c(=O)n(C)c(=O)n3C)n2C)c1` was tested, and the Potency was “inactive”. `CCOCC(=O)Nc1ccc(-c2cn3cccnc3n2)cc1` was tested, and the Potency was “inactive”. With `CN1CCN(C(=S)c2ccc(N(C)C)cc2)CC1` the Potency was inconclusive [falling, full curve]. In the case of `CC(=O)C1=C(O)C(=O)N(CCc2ccccc2)C1c1ccccc1[N+](=O)[O-]` (stereo not drawn), the Potency is reported as inconclusive [falling, single point]. In the case of `COC(=O)c1cc(NC(=O)CN(C)C2CCS(=O)(=O)C2)cc(C(=O)OC)c1` (stereo not drawn), the Potency is reported as “inactive”. For `O=S(=O)(c1ccc(N=C2NN=C(c3cc(F)ccc3F)CS2)cc1)N1CCOCC1`, the Potency was inconclusive [falling, single point]. `COc1ccc(C2CC(c3cccs3)=Nc3ccccc3S2)cc1` (stereo not drawn) was tested, and the Potency was inconclusive [falling, single point]. In the case of `C=CCc1cccc2cc(C(=O)Nc3ccc(CC(=O)O)cc3)c(=O)oc12`, the Potency is reported as “inactive”. In the case of `C=CCNc1nc(C(=O)OCC(=O)c2ccccc2)cs1`, the Potency is reported as active: 8.49 µM. `O=c1c(OC2OC(CO)C(O)C(O)C2OC2OC(CO)C(O)C(O)C2OC2OC(CO)C(O)C(O)C2O)c(-c2ccc(O)c(O)c2)oc2cc(O)cc(O)c12` (stereo not drawn) was tested, and the Potency was “inactive”. With `COC(=O)Nc1sc2c(c1C(N)=O)CCCCCC2` the Potency was “inactive”.
